Assay results reported in patent US9988462B2, “Material and methods for treating or preventing HER-3 associated diseases” (Daiichi Sankyo Europe GmbH, priority 2005, dated 2018).

Key:
[1] = target: T1, reduced, denatured HER-3-His tagged purified ECD protein (Homo sapiens, UniProt P21860); assay: Dot blot analysis of reduced, denatured HER-3 ECD; type: binding
T1 construct: The extracellular domain of HER-3 (ECD) cDNA was cloned by polymerase chain reaction (PCR); His (C); made in house; host or cells: HEK293

rat HER-3 = target: T2, rat HER-3 (Rattus norvegicus, UniProt Q62799); assay: ELISA cross-reactivity with rat HER-3; type: binding
T2 construct: The cDNAs expressing the ECD of human and rat HER-3 were cloned into mammalian expression vectors as V5-His fusion proteins; V5-His; made in house; host or cells: mammalian expression vector; HEK 293T is named only for the chimeras
T2 sequence (Q62799 20-643 limits assumed): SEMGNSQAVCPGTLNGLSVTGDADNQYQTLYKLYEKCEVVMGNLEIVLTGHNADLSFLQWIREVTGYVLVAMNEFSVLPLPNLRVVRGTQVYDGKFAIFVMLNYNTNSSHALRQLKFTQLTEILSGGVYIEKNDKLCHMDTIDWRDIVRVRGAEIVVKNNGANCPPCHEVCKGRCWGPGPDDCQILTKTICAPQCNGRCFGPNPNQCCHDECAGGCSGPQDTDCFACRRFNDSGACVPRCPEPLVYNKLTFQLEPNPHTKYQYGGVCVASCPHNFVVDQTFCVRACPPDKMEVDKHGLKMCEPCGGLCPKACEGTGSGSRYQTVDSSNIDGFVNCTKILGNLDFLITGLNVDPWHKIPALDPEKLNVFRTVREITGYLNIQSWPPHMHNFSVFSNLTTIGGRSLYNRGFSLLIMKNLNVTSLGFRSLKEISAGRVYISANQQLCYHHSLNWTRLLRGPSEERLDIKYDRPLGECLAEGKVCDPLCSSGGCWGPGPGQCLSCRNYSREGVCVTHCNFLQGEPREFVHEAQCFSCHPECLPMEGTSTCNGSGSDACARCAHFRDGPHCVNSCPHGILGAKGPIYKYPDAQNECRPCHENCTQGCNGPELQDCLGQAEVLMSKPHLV
Description: The extra-cellular domain (ECD) of Human HER-3 cDNA was amplified from RAT1-HER-3 cells. The rat HER-3 cDNAs was amplified by RT-PCR from rat liver RNA and confirmed by sequencing. The cDNAs expressing the ECD of human and rat HER-3 were cloned into mammalian expression vectors as V5-His fusion proteins. Domains from the human HER-3 ECD were swapped into the scaffold provided by the rat HER-3 ECD by using the Mfe1, BstX1 and DraIII internal restriction sites. By this means, various chimeric rat/human HER-3 ECD HIS fusion proteins (amino acids 1-160, 161-358, 359-575, 1-358, 359-604) were constructed and expressed via transient transfection of HEK 293T cells. Expression of the constructs was confirmed using a rat polyclonal antibody against human HER-3. The human monoclonal antibodies were tested in ELISA for binding to the secreted chimeric ECDs.

binding in dot blot analysis [1]: absence of binding
Rat XR (cross-reactive) (rat HER-3): No
B1: U1-49: human IgG1 anti-HER-3 antibody, SEQ ID NO: 42/44 (antibody, V domains shown)
VH: [in this place about 100 residues]GGRYSSSWSYYYYGMDVWGQGTTVTVS
VL: DILMTQTPLSLSVTPGQPASISCKSSQSLLLSDGGTYLYWYLQKPGQPPQLLIYEVSNRFSGVPDRFSGSGSGTDFTLKISRVEAEDVGVYYCMQSMQLPITFGQGTRLEIK
